The values below come from US5036046A, “Method for enhancing healing of corneal endothelial wounds” (Eye Research Institute of Retina Foundation, Inc., priority 1988, dated 1991).

Test [1] deals with Corneal endothelial cells. In words: Transmission electron microscopy of pharmacologically modulated endothelial phenotypes. As to conditions: treated cultures.
The test system of test [2] is Corneal endothelial cells. In words: f-actin labelling with rhodamine labelled phallacidin in cultured corneal endothelial cells. As to conditions: 1 week in culture. The text has this: Widely separated cables of somewhat smaller diameter were also seen within the cytoplasm of these cells.

For the compound `COc1ccc2c(c1)c(CC(=O)O)c(C)n2C(=O)c1ccc(Cl)cc1` [indomethacin], the “ultrastructure by transmission electron microscopy” value in test [1] is “extensive cytoplasmic overlap and close ajunctional apposition of the membranes of adjacent cells”. With `CCCCC[C@H](O)/C=C/[C@H]1[C@H](O)CC(=O)[C@@H]1C/C=C\CCCC(=O)O` [pgE2, prostaglandin E2], the f-actin staining pattern result in test [2] is “circumferential actin bands and discrete cytoplasmic fibers were apparent”. For the same compound, the “ultrastructure by transmission electron microscopy” value in test [1] is reported as “maintained the differentiated morphology of the polygonal cells”.

As to epidermal growth factor [EGF], the f-actin staining pattern entry in test [2] is “actin fibers throughout the cytoplasm running roughly parallel to the long axis of the cell”.
